# Laboratory results from the supplement of paper PMC11417369.
# ± gives the standard deviation of the averaged measurements. The list shows a part of the results.
# Tested on: PfAP2-EXP AP2 domain (GST-tagged)
# Assay: gcPBM binding intensity (ln(normalized median fluorescence intensity)); higher = stronger DNA binding
# Method in brief: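 For binding intensity, the highest Masliner-normalised natural-log median intensity across replicate spots of either probe orientation was taken. Protein bound to the array was stained with Alexa488 anti-GST antibody and scanned at 488 nm. The protein, GST-tagged P. falciparum DNA-binding domains from E. coli at about 25 μg on average, had been applied for 1 h to an Agilent 4 × 180k array of primer-extended double-stranded 36-bp intergenic genomic probes and negative controls.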
row,Sequence,gcPBM binding intensity (ln)
1,TATACAGGAATATTTTTACACACTAATAATTATAAA [CACACA_site8477],8.25 ± 0.44
2,TATTTACAACAAATTTAATTATTTTTAACTTATAAA [GTGCAC_negctrl_site259],7.93 ± 0.32
3,TATTTTATATAAAGGTGTACTTATACAAAAATATAT [XGTACX_site7435],8.56 ± 0.22
4,ATAAATACAGATATTACACACTTCTTATTCTAAGAA [CACACA_site5640],8.21 ± 0.52
5,TTTTTTTTTTTTGAGTGTACAAGATTGTTGTTCCAA [XGTACX_site6120],8.37 ± 0.57
6,TTTTTTCAAATTATTCGATATGTAAAAAAATAAAAT [GTGCAC_negctrl_site241],8.21 ± 0.49
7,AAATATTTGTGTGGTTGTACTATAATGATAAAAATA [XGTACX_site7703],8.81 ± 0.4
8,TTATATTATATATATATTATATATATGTATGCATAA [TGCATGCA_negctrl_site481],8.29 ± 0.39
9,CATACATACAAACACACACACATATATATATATATA [CACACA_site43],10.1 ± 0.16
10,GGTTTGAATTTTTAAGTGCATATAACATAAATGAAA,8.65 ± 0.2
11,TTTGTAGATTTTGTAACACACACATATATATACATA [CACACA_site8757],8.45 ± 0.35
12,TATGCACCCAGACACACACACACAACTAAAAAATAA [CACACA_site2567],8.64 ± 0.38
13,TCTTTCTATTTATAATGTACTCAAAATTATTCTATA [XGTACX_site4867],8.6 ± 0.36
14,TACCATTATTTTAAGTGTACATACTAATTTATATAT [XGTACX_site6548],8.61 ± 0.28
15,AAAATATAATATATTGCACACAAAAAGTGAATTATT [CACACA_site8489],8.54 ± 0.33
16,CCTTGCATTTATTATACACACACAAAAAAATATATA [CACACA_site7964],8.77 ± 0.17
17,TTTTACCACTAAAAATGTACAAAAAAAAAAAAAAAA [XGTACX_site4226],7.92 ± 0.43
18,AAATTGTGTGAAATATATTAATATTATTATTATTAT [TGCATGCA_negctrl_site189],8.29 ± 0.32
19,TTGCAAATATATGGTTGTACTCAAAAAAAAAAAAAA [XGTACX_site6975],8.26 ± 0.42
20,CAAAAATAACGAGTCAAACACACATATATATATATA [CACACA_site2038],10.1 ± 0.24
21,AAAGGGATAACACCAAAAAAAATAAAAATAAAAATA [GTGCAC_negctrl_site680],8.61 ± 0.54
22,TCAAGAATTTTAAAGAGTACATAAAACAATAATATA [XGTACX_site3923],8.69 ± 0.4
23,ATTAATGATTTTTGTTGTACATTATTAATTTACATT [XGTACX_site544],8.69 ± 0.35
24,ATGCGTATACTAAGAACACACAAGTTACTTGGTGTT [CACACA_site1625],8.56 ± 0.31
